This passage reports binding results from PMC5388433.

Protein sequences, listed by entry. Tags and fused reporters are not part of them. Lines headed by an entry give the natural chain unless they say otherwise; changes in a name come on top.
UniProt P45973: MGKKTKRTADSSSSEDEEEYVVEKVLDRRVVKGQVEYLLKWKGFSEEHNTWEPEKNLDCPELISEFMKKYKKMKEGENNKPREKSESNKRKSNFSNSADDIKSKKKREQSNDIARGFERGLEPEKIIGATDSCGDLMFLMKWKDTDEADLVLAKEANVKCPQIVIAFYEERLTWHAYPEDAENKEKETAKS
UniProt P83916: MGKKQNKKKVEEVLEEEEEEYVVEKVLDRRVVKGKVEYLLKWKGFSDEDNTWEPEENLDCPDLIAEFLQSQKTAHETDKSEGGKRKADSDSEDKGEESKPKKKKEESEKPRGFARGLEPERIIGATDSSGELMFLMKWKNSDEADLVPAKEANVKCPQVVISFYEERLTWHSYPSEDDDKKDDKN
UniProt Q13185: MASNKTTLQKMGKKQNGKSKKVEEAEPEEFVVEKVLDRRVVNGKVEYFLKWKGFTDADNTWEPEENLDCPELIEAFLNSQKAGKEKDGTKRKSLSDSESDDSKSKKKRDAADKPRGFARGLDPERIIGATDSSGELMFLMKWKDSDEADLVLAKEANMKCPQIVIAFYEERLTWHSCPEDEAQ

Residue numbers refer to the chain shown, from its start. Results are given in words; binding and its absence hold for the method and conditions named. For some of these results: In cells and extracts the contact can be indirect. Some entries that bind do so weakly or less than the wild type. For some of these results: Where a sequence is shown, tags or fusion partners need not be part of it.

The first experiment has as its target T1, FLAG-GFP-tagged WT KDM2A (BHK) (human) (UniProt Q9Y2K7).
T1 sequence: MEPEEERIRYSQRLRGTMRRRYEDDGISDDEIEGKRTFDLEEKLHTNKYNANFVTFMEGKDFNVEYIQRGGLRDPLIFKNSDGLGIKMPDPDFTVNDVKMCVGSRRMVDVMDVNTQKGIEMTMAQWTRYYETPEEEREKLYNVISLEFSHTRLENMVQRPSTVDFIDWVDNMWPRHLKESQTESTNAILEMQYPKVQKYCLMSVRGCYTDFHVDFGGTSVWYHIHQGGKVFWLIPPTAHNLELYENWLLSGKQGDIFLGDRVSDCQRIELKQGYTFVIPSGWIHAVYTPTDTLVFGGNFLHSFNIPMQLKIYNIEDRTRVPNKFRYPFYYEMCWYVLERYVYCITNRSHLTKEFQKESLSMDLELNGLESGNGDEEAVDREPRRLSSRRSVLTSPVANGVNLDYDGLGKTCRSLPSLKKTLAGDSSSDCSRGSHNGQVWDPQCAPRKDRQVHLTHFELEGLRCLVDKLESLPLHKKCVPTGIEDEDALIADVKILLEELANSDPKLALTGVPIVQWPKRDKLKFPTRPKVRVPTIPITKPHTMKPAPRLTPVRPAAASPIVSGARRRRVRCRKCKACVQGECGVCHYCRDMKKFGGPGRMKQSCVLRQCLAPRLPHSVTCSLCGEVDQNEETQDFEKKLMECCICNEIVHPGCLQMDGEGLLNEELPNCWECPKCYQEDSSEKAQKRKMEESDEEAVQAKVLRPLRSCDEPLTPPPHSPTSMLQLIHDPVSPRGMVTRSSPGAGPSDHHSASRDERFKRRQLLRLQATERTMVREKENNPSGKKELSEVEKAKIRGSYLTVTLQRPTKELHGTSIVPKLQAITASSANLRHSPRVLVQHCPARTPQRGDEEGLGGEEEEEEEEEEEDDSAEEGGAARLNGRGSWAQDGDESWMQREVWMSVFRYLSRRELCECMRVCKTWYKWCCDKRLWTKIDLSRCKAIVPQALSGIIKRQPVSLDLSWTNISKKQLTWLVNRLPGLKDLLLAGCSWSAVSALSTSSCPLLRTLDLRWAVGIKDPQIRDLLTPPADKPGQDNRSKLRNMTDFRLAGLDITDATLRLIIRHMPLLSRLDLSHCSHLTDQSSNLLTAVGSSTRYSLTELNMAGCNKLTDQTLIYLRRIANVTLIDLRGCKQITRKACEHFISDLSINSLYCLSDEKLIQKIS
As to the kind of experiment: fluorescent three-hybrid (F3H) assay; BHK cells with a genomic lacO array, triple-transfected; GFP-KDM2A anchored to the array by GBP-LacI; recruitment of mRuby2-HP1 to the lacO spot seen by confocal microscopy.
“mRuby2-fused HP1α V22M (from UniProt P45973 1-191)”: the binding result is “binds”.
Same read-out and setting: to “mRuby2-fused HP1β (from UniProt P83916 1-185)” belongs “binds”; to “mRuby2-fused HP1α I165K (from UniProt P45973 1-191)”, “no binding”.
For the substance “mRuby2-fused HP1α (WT) (from UniProt P45973 1-191)”, the binding result was “binds”.
For the substance “mRuby2-fused HP1α W174A (from UniProt P45973 1-191)”, the binding entry is listed as “no binding”.
Turning to “mRuby2-fused HP1γ (from UniProt Q13185 1-183)”, the binding entry is “binds”.

The next experiment addresses T2, KDM2A_(543-811) nucleosome recognition module (human) (UniProt Q9Y2K7).
T2 sequence: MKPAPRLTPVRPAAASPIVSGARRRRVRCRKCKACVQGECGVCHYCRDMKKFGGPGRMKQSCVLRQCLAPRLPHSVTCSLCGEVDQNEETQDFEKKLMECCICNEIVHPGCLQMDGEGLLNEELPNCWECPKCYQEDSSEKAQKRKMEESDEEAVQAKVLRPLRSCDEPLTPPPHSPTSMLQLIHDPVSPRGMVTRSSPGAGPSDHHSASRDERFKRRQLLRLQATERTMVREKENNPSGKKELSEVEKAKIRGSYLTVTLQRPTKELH
As to the kind of experiment: SEC; 50 μg of each protein mixed in 50 μl, 15 min at 4°C; Superdex 200 Increase 3.2/300; 50 mM Tris pH7.5, 100 mM NaCl, 5 mM β-mercaptoethanol; fractions on Coomassie-stained gels; both purified. On the technique in general: In gel filtration, larger molecules generally elute earlier.
Turning to “purified HP1γ (from UniProt Q13185 1-183)”, the binding entry is “binds”.
For “purified HP1β (from UniProt P83916 1-185)”, the binding result is “binds”.

For another experiment, the target named is T3, FLAG-GFP-tagged WT KDM2A (HeLa) (human) (UniProt Q9Y2K7).
T3 sequence: T1 sequence
Nature of the experiment: co-IP; FLAG-GFP-KDM2A and FLAG-HP1α co-expressed in HeLa cells; extracts adjusted to 150 mM NaCl; KDM2A precipitated with GFP-Trap beads, 4°C; immunoblot against the FLAG tag. A general note: In western blotting, separated proteins are transferred to a membrane and probed.
With “FLAG-tagged HP1α WT (HeLa) (from UniProt P45973 1-191)”, the binding result was “binds”.
Same read-out and setting: for “FLAG-tagged HP1α I165K (HeLa) (from UniProt P45973 1-191)” the value was “no binding”; for “FLAG-tagged HP1α V22M (HeLa) (from UniProt P45973 1-191)”, “binds”; for “FLAG-tagged HP1α W174A (HeLa) (from UniProt P45973 1-191)”, “no binding”.

For the next experiment, the target named is T4, FLAG-GFP-tagged KDM2A V801A/L803A (HeLa) (human) (UniProt Q9Y2K7).
T4 sequence: T1 sequence with V801A, L803A
The description is as above.
On to “FLAG-tagged HP1α WT (HeLa) (from UniProt P45973 1-191)”, for which the binding result was “no binding”.

The next experiment concerns the target T5, KDM2A (endogenous) (human (endogenous in HeLa)) (UniProt Q9Y2K7).
T5 sequence: T1 sequence
As to the kind of experiment: co-IP; endogenous KDM2A immunoprecipitated with anti-KDM2A antibody from 1 mg HeLa nuclear extract (soluble and chromatin-bound fractions, Benzonase-treated) in the presence of 50 μg ethidium bromide; Dynabeads Protein G; washes with 150 mM NaCl, 0.1% NP40; immunoblot against HP1 α, β and γ.
For the substance “HP1α (endogenous) (from UniProt P45973 1-191)”, the binding entry is “binds”.
Same read-out and setting: to “HP1γ (endogenous) (from UniProt Q13185 1-183)” belongs “binds”.
In the case of “HP1β (endogenous) (from UniProt P83916 1-185)”, the binding result is on record as “binds”.
